According to patent US20260053898A1 (FORTVITA BIOLOGICS SINGAPORE PTE, published 2026):

B1: 2132 (αPD-1/IL-2m immunoconjugate; IL-2 with T3A + N88R and IL15 B′C′ loop region) (other)
chain: APASSSTKKTQLQLEHLLLDLQMILNGINNYKNPKLTRMLTFKFYMPKKATELKHLQCLEEELKPLEEVLNLAGDASIHDLISRINVIVLELKGSETTFMCEYADETATIVEFLNRWITFSQSIISTLTGGGGSGGGGS[human IgG1 Fc with changes not listed]
heavy: QVQLVQSGAEVKKPGSSVKVSCKASGGTFSSYAISWVRQAPGQGLEWMGLIIPMFDTAGYAQKFQGRVAITVDESTSTAYMELSSLRSEDTAVYYCARAEHSSTGTFDYWGQGTLVTVSSASTKGPSVFPLAPSSKSTSGGTAALGCLVKDYFPEPVTVSWNSGALTSGVHTFPAVLQSSGLYSLSSVVTVPSSSLGTQTYICNVNHKPSNTKVDKKVEPKSCDKTHTCPPCPAPEAAGGPSVFLFPPKPKDTLMISRTPEVTCVVVDVSHEDPEVKFNWYVDGVEVHNAKTKPREEQYNSTYRVVSVLTVLHQDWLNGKEYKCKVSNKALPAPIEKTISKAKGQPREPQVCTLPPSRDELTKNQVSLSCAVKGFYPSDIAVEWESNGQPENNYKTTPPVLDSDGSFFLVSKLTVDKSRWQQGNVFSCSVMHEALHNHYTQKSLSLSPGK
light: DIQMTQSPSSVSASVGDRVTITCRASQGISSWLAWYQQKPGKAPKLLISAASSLQSGVPSRFSGSGSGTDFTLTISSLQPEDFATYYCQQANHLPFTFGGGTKVEIKRTVAAPSVFIFPPSDEQLKSGTASVVCLLNNFYPREAKVQWKVDNALQSGNSQESVTEQDSKDSTYSLSSTLTLSKADYEKHKVYACEVTHQGLSSPVTKSFNRGEC
B2: 2063 (αPD-1/IL-2m immunoconjugate; IL-2 with T3A + N88D and IL15 B′C′ loop region) (other)
chain: APASSSTKKTQLQLEHLLLDLQMILNGINNYKNPKLTRMLTFKFYMPKKATELKHLQCLEEELKPLEEVLNLAGDASIHDLISDINVIVLELKGSETTFMCEYADETATIVEFLNRWITFSQSIISTLTGGGGSGGGGS[human IgG1 Fc with changes not listed]
heavy: B1 heavy
light: B1 light
B3: 2149 (αPD-1/IL-2m immunoconjugate; IL-2 with T3A + N88R + S130R and IL15 B′C′ loop region) (other)
chain: APASSSTKKTQLQLEHLLLDLQMILNGINNYKNPKLTRMLTFKFYMPKKATELKHLQCLEEELKPLEEVLNLAGDASIHDLISRINVIVLELKGSETTFMCEYADETATIVEFLNRWITFSQSIIRTLTGGGGSGGGGS[human IgG1 Fc with changes not listed]
heavy: B1 heavy
light: B1 light
B4: 2213 (αPD-1/IL-2m immunoconjugate; IL-2 with T3A + F42A + N88R + S127E and truncated IL-2 B′C′ loop region) (other)
chain: APASSSTKKTQLQLEHLLLDLQMILNGINNYKNPKLTRMLTAKFYMPKKATELKHLQCLEEELKPLEEVLNLAQSKNFHDLISRINVIVLELKGSETTFMCEYADETATIVEFLNRWITFSQEIISTLTGGGGSGGGGS[human IgG1 Fc with changes not listed]
heavy: B1 heavy
light: B1 light
B5: 2214 (αPD-1/IL-2m immunoconjugate; IL-2 with T3A + F42A + N88R + S127E and IL15 B′C′ loop region) (other)
chain: APASSSTKKTQLQLEHLLLDLQMILNGINNYKNPKLTRMLTAKFYMPKKATELKHLQCLEEELKPLEEVLNLAGDASIHDLISRINVIVLELKGSETTFMCEYADETATIVEFLNRWITFSQEIISTLTGGGGSGGGGS[human IgG1 Fc with changes not listed]
heavy: B1 heavy
light: B1 light
B6: 2219 (αPD-1/IL-2m immunoconjugate; IL-2 with T3A + K35E + N88R + S127E and truncated IL-2 B′C′ loop region) (other)
chain: APASSSTKKTQLQLEHLLLDLQMILNGINNYKNPELTRMLTFKFYMPKKATELKHLQCLEEELKPLEEVLNLAQSKNFHDLISRINVIVLELKGSETTFMCEYADETATIVEFLNRWITFSQEIISTLTGGGGSGGGGS[human IgG1 Fc with changes not listed]
heavy: B1 heavy
light: B1 light

Target: IL-2Rβγ complex (Fc heterodimer based on Knobs in holes: IL-2Rβ-Fc-Knob and IL-2Rγ-Fc-Hole) (human, biotin tag (avi tag))
Experiment: SPR Biacore T200; biotinylated IL-2Rβγ captured on SA chip, molecule in the mobile phase

Row | Binder | Kd [nM]
1 | B1 | 258
2 | B2 | 42.5
3 | B3 | 630
4 | B4 | 466
5 | B5 | 100
6 | B6 | 551
